Screen size: about 150,000 compounds; about 180 (0.12%) were called active. This list was built around the results that the source calls inconclusive (neither active nor inactive); the mix of calls is not that of the screen. The call rests on the fitted dose curve; in most records, active means well fitted cell-killing curve with a large enough effect; inconclusive means small, poorly fitted or top-dose-only effect, or effect the other way; inactive means flat fitted curve, though single readings scatter. Potencies beside an inconclusive call are fits to weak or partial responses and may not hold up.
Assay: GF-AFC viability counterscreen for inhibitors of alpha-synuclein gene (SNCA) expression; further: nearly all actives have a fitted effect of over 30% in size;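 on activity change, negative = cytotoxicity: 0% = DMSO-treated cells and -100% = medium-only wells without cells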
Conditions: HEK-293-SNCA-luc viability, GF-AFC fluorescence, 24 h; activity change, negative = cytotoxicity: at 57.1 µM (top of the series) unless noted
Summary of the method: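 HEK-293-SNCA-luc cells (1500/well) plated 24 h, then exposed 24 h to a dilution series; GF-AFC added 30 min at 37C, fluorescence 405/540 nm; normalised to medium-only and DMSO wells, Hill fit.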
Potency means the concentration at half of the fitted maximal effect; tags describe the fitted curve by direction and shape.

SMILES	activity change, negative = cytotoxicity	Potency
CCc1noc(-c2cccn3c(CNC(=O)COc4ccccc4)nnc23)n1	inactive: -4.81%	
COCCNC(=O)c1ccc2c(c1)N(C)C(CC(=O)N1CCCOCC1)CO2 (stereo not drawn)	inactive: -2.74%	
COCC(=O)N1CCCN(c2ccnc3ccnn23)CC1	inactive: 11.7% [at 87.6 µM]	
CCc1cccc(C)c1NC(=O)Cn1c(=O)n(-c2ccccc2)c(=O)c2c1cc(C)n2C		inconclusive: 7.08 µM [cytotoxic, single point]
O=C(c1ccco1)N1CCC(Oc2ccccc2-c2nc(-c3ccccc3)no2)C1 (stereo not drawn)		inconclusive: 28.2 µM [cytotoxic, partial curve, poor fit]
O=C(Nc1ccc(Cl)nc1)c1c[nH]c2cccnc12		inconclusive: 12.6 µM [cytotoxic, single point]
COc1ccc(C(=O)N[C@@H]2CCC[C@@H]2C(=O)NC2CCN(Cc3ccccc3)CC2)cn1		inconclusive: 28.2 µM [cytotoxic, partial curve, poor fit]
CCn1c(=O)c2cc(C(=O)N3CCN(c4cccc(Cl)c4)CC3)sc2c2ccccc21		inconclusive: 0.355 µM [rising, full curve, poor fit]
Cc1n[nH]c(C)c1Cc1ccc(C(=O)N2CCC(CCOc3ccc(F)cc3)C2)o1 (stereo not drawn)		inconclusive: 28.2 µM [cytotoxic, partial curve, poor fit]
Clc1ccccc1-c1nc(NC2CCNCC2)c2ccccc2n1		inconclusive: 31.6 µM [cytotoxic, partial curve, poor fit]
N#Cc1ccc(C(=O)N2CCOCCNC(=O)[C@@H]3CCC[C@@H]32)cc1		inconclusive: 3.16 µM [cytotoxic, single point]
O=C(c1ccc(Cl)cc1)N1CCC2(CC1)CN(c1ccccc1)C(=O)c1ccccc1O2		inconclusive: 17.8 µM [cytotoxic, partial curve, poor fit]
Cc1cnc(C(=O)N[C@@H]2CCC[C@@H]2C(=O)NCCC2=CCCCC2)cn1		inconclusive: 39.8 µM [cytotoxic, partial curve, poor fit]
Cc1ccc(CNC(=O)c2nc(SCc3ccc(C)cc3)ncc2Cl)cc1	inactive: 8.8%	
COc1ccccc1CNC[C@@H]1C=C(C)[C@H](Cc2nc3c(C)cccc3[nH]2)C[C@H]1C(C)C		active: 35.5 µM
O=C(NC1CCOCC1)c1ccc2c(c1)OCCN(c1cccc(OC(F)(F)F)c1)C2	inactive: -18.1% [at 87.6 µM]	
COc1ccc(-c2noc([C@@H]3C[C@@H](O)CN3Cc3ccc(CO)o3)n2)cc1	inactive: -10.1% [at 87.6 µM]	
CCNc1ncc2nc(C)c(=O)n(Cc3cccs3)c2n1		inconclusive: 35.5 µM [cytotoxic, single point]

— PubChem BioAssay AID1671193 (National Center for Advancing Translational Sciences (NCATS), 2021)
